We go through 86 compounds from publication PMC4336329 (PLoS ONE, 2015).

The campaign covered roughly 310,000 compounds. About 2,200 (0.71%) showed an effect of 50% or more. Effects have a minus sign here. The list shows a part of the results.

In this assay the target is human ether-à-go-go-related gene (hERG) potassium channel (human, UniProt Q12809). The assay is described as follows: primary screen, population patch clamp on CHO cells stably expressing hERG.
Chain of human ether-à-go-go-related gene (hERG) potassium channel (Q12809 whole entry, looked up): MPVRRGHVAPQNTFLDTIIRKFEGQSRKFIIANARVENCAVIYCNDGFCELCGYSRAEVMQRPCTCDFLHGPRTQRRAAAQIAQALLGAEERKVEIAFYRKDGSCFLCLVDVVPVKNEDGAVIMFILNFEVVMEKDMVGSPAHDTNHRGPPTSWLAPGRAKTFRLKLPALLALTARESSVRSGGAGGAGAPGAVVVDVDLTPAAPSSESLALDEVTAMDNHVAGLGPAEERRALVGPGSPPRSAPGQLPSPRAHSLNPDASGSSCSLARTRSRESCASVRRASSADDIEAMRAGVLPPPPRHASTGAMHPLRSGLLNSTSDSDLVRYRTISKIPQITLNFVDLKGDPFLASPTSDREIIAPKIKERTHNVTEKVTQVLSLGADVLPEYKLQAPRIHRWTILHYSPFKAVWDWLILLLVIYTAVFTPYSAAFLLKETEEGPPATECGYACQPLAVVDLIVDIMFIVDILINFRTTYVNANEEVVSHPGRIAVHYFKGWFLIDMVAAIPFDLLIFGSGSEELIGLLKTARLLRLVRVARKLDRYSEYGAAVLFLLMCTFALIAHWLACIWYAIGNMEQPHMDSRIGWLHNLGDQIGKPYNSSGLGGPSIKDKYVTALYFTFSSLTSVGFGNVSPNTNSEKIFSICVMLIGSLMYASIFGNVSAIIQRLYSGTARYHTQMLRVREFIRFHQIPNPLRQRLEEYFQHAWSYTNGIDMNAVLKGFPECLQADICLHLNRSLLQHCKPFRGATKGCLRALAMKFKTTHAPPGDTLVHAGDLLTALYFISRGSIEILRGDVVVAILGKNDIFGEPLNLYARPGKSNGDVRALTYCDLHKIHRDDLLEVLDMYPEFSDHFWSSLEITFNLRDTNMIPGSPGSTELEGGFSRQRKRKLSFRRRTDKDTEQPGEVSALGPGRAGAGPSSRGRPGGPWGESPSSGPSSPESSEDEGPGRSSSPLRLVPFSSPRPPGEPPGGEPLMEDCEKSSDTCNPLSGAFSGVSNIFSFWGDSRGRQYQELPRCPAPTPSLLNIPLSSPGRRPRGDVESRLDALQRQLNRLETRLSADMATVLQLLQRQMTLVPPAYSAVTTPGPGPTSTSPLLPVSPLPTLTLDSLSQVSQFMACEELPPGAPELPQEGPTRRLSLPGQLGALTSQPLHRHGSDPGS
With `COc1ccc(NC(=O)COC(=O)c2ccc3ccccc3n2)cc1`, the “hERG current change (%, negative = inhibition) at 1uM” value is recorded as 12.3%. Take `CC(C)CC(=O)NC(C)C(c1cccs1)N1CCOCC1` (centres unmarked): the “hERG current change (%, negative = inhibition) at 1uM” value turned out to be 9.86%.

Take `COc1cc(CCC(=O)N2CCN(c3ncccn3)CC2)cc(OC)c1OC`: the “hERG current change (%, negative = inhibition) at 1uM” value worked out at 22.4%. For the compound `CC(C)NS(=O)(=O)c1ccc(NC(=O)C2CC3C=CC2C3)cc1` (centres unmarked), the “hERG current change (%, negative = inhibition) at 1uM” value worked out at 13.5%. Turning to `CNC(=O)NC(=O)C(C)N1CCN(C/C=C/c2ccccc2)CC1` (centres unmarked), the “hERG current change (%, negative = inhibition) at 1uM” value is -32.1%.

As for `CC(C)NC(=S)Nc1ccc(Oc2ccccc2)cc1`, the “hERG current change (%, negative = inhibition) at 1uM” value was 6.98%. As to `Cn1c(COc2ccccc2)nnc1SCc1cc(=O)[nH]c2ccccc12`, the “hERG current change (%, negative = inhibition) at 1uM” value is reported as -6.57%. Regarding `COc1ccc(C(=O)NC(C)CCn2cccn2)cc1OC1CCN(C(C)C)CC1` (centres unmarked), the “hERG current change (%, negative = inhibition) at 1uM” value is reported as 17.8%. On to `CCC1SC(C)C/C(=N/NC(N)=O)C1C` (centres unmarked), for which the “hERG current change (%, negative = inhibition) at 1uM” value is recorded as 11%. The value for `Cc1ccc(S(=O)(=O)N(C)C)cc1NC(=O)CSc1nnnn1-c1ccc(O)cc1` was 10.6%; that for `Cc1ccccc1C(=O)NC(=S)Nc1ccc(Oc2ccc(Cl)cc2)cc1` was 11.8%; that for `CC(C)(C)c1cc(/C=N/NC(=O)Cc2nc3ccccc3[nH]2)cc(C(C)(C)C)c1O` was 12%. With `CCOC(=O)c1ccc(Cl)c(S(=O)(=O)N2CCCC2)c1`, the “hERG current change (%, negative = inhibition) at 1uM” value is on record as 32.5%. As to `COc1ccc(N2C(=O)C(Cl)=C(Nc3ccccc3O)C2=O)cc1`, the “hERG current change (%, negative = inhibition) at 1uM” value was 16.6%. For `CNC(=O)/C(C#N)=C\c1ccc(CNS(=O)(=O)c2ccc(Cl)cc2)o1`, the “hERG current change (%, negative = inhibition) at 1uM” value is on record as 12.3%. As to `O=c1[nH]n2c(=O)c3c([nH]c2c1N=Nc1cccc(Cl)c1)CCC3`, the “hERG current change (%, negative = inhibition) at 1uM” value is 12.2%. The value for `CCC1Sc2ccc(S(=O)(=O)CCC(=O)Nc3ccc(NC(C)=O)cc3)cc2NC1=O` (centres unmarked) was 15%; that for `COc1ccc(CCCNC(=O)CC#N)cc1OC` was 11.7%. Take `NCC/C=C1/c2ccccc2CSc2ccccc21.O=C(O)/C=C\C(=O)O`: the “hERG current change (%, negative = inhibition) at 1uM” value is 9.91%. Take `O=C1NC(=O)C(=Cc2coc3ccccc3c2=O)C(=O)N1`: the “hERG current change (%, negative = inhibition) at 1uM” value stood at 14%. With `COc1cc(/C=N/NC(=O)COc2c(C)cc([N+](=O)[O-])cc2C)ccc1OC(=O)c1ccccc1`, the “hERG current change (%, negative = inhibition) at 1uM” value worked out at 6.47%.

Consider `O=C1CCCN2N=C(SCC(=O)Nc3ccc(Br)cc3)SC2=N1`, for which the “hERG current change (%, negative = inhibition) at 1uM” value is reported as 14.1%. For `COc1ccc(Cl)cc1NC(=O)C/C(C)=N/NC(=O)c1ccc(O)cc1`, the “hERG current change (%, negative = inhibition) at 1uM” value is recorded as 8.84%. On to `O=C(c1cccs1)N1CCCC(c2nc(-c3ccc(F)cc3)no2)C1` (centres unmarked), for which the “hERG current change (%, negative = inhibition) at 1uM” value is reported as -10.8%.

On to `CCSc1nc2c(c(=O)[nH]c(=O)n2C)n1CC(O)COc1ccccc1` (centres unmarked), for which the “hERG current change (%, negative = inhibition) at 1uM” value is reported as 14.8%.

Regarding `Cc1ccc(S(=O)(=O)c2cc3c(=O)n4ccccc4nc3n(C)c2=N)cc1C`, the “hERG current change (%, negative = inhibition) at 1uM” value is 18.8%.

For the compound `CCOC(=O)C(NCCc1ccccc1F)(NC(C)=O)C(F)(F)F` (centres unmarked), the “hERG current change (%, negative = inhibition) at 1uM” value was determined as 5.66%. The value for `CN=C(Nc1cc(C)nn1CCC#N)c1ccccc1` was 13.3%; that for `COc1cccc(NC(=O)Nc2cccn(Cc3ccccc3)c2=O)c1` was -1.23%; that for `CCOC(=O)COc1ccc2c(c1)c(C(C)=O)c(C)n2-c1ccc(OC)cc1` was 6.9%.

Take `O=C(NCc1cccnc1)c1cc(S(=O)(=O)N2CCOCC2)c(Cl)cc1Cl`: the “hERG current change (%, negative = inhibition) at 1uM” value is listed as 8.44%.

`Cc1ccc(S(=O)(=O)NC2(C(F)(F)F)C(=O)Nc3c2c(=O)[nH]c(=O)n3-c2ccccc2)cc1` (centres unmarked): the “hERG current change (%, negative = inhibition) at 1uM” value worked out at 12.2%. On to `OCCC1CN(Cc2ccccc2-c2ccco2)CCN1C1CCCC1` (centres unmarked), for which the “hERG current change (%, negative = inhibition) at 1uM” value is listed as -44.6%. As to `CCN(C(=O)CSc1ccc2ccccc2n1)C1CCS(=O)(=O)C1` (centres unmarked), the “hERG current change (%, negative = inhibition) at 1uM” value is 3.17%. Take `COc1ccc(-c2cc(C(=O)n3cnc4ccccc43)c3ccccc3n2)cc1`: the “hERG current change (%, negative = inhibition) at 1uM” value worked out at 5.65%.

As for `CCc1ccc(-c2cc(C)no2)cc1S(=O)(=O)NCCN1CCC(C)CC1`, the “hERG current change (%, negative = inhibition) at 1uM” value turned out to be 12.5%. Turning to `Cc1ccc(Nc2nnc(SCC(=O)NC3CCCc4ccccc43)s2)cc1` (centres unmarked), the “hERG current change (%, negative = inhibition) at 1uM” value was determined as 5.92%.

With `COCCCNC(=O)COc1ccc(-c2nccc(-c3ccccn3)n2)cc1`, the “hERG current change (%, negative = inhibition) at 1uM” value is 2.01%. The value for `CCOC(=O)c1ccccc1NC(=O)C(C)Oc1ccccc1` (centres unmarked) was 9.9%. In the case of `C/C(CC(=O)Nc1cccc(C(F)(F)F)c1)=N\NC(=O)C1CCCCC1`, the “hERG current change (%, negative = inhibition) at 1uM” value is listed as 5.22%.

`Cc1ccc(NC(=O)CSc2nc(N)cc(=O)[nH]2)cc1S(=O)(=O)N1CCOCC1`: the “hERG current change (%, negative = inhibition) at 1uM” value is 11.5%. With `Cc1ccc(OCc2cc(C(=O)N3CCCCCCC3)no2)cc1C`, the “hERG current change (%, negative = inhibition) at 1uM” value is recorded as 13%. The value for `Cc1csc(NC(=O)CCC(=O)N(CC(=O)NC2CCCC2)Cc2ccco2)n1` was 7.83%; that for `CCCCc1nc(N2CCOCC2)c(C#N)c2c1CCCC2` was 5.05%; that for `CC(C)(C)CC(C)(C)NC(=S)N1CCN(Cc2ccc3c(c2)OCO3)CC1` was 27.4%. With `CCn1c(=O)[nH]c2cc(C(=O)N3CCN(c4ccccc4)CC3)ccc2c1=O`, the “hERG current change (%, negative = inhibition) at 1uM” value was determined as 2.87%. For `CC1=[N+](C)N(c2ccccc2)C(=O)C1N=C/C=C/c1ccccc1` (centres unmarked), the “hERG current change (%, negative = inhibition) at 1uM” value came out at 12.3%. The value for `Cc1c(/C=N\NC(=O)c2csc3ccccc23)cnn1C` was 16.9%; that for `O=[N+]([O-])c1cc(S(=O)(=O)C(F)(F)F)ccc1NCC1CCCO1` (centres unmarked) was 14.9%; that for `CCN1C[C@@]2(COC)C3[C@@H](OC)[C@H]4[C@@H]1[C@@]3(C1C[C@H]3[C@H](O)C1[C@]4(O)C[C@H]3OC)[C@@H](OC)C[C@H]2O` (some centres unmarked) was 15.9%.

Regarding `CCOC(=O)c1ccc(NC(=O)CSc2nc3sc(C(=O)O)c(C)c3c(=O)[nH]2)cc1`, the “hERG current change (%, negative = inhibition) at 1uM” value is 9.7%. Take `Cc1cc(C)n(-c2nnc(C)n2/N=C/c2ccccc2F)n1`: the “hERG current change (%, negative = inhibition) at 1uM” value was 3.39%. For the compound `O=C(O)C(Cc1ccccc1)N1C(=O)c2ccccc2C1=O` (centres unmarked), the “hERG current change (%, negative = inhibition) at 1uM” value was 5.5%. As for `CCc1nonc1NC(=O)c1oc2c(C)c(C)ccc2c1C`, the “hERG current change (%, negative = inhibition) at 1uM” value stood at 11.9%.

In the case of `CCCN1CCN(C(=S)Nc2ccc3nc(N4CCN(CC)CC4)cc(C)c3c2)CC1`, the “hERG current change (%, negative = inhibition) at 1uM” value was determined as 13.6%. With `COC(CNC(=O)c1cc(-c2ccncc2)nc2ccc(S(=O)(=O)N3CCOCC3)cc12)OC`, the “hERG current change (%, negative = inhibition) at 1uM” value is 3.23%.

Turning to `O=c1c2ccccc2nc(-c2ccccc2)n1CCCn1ccnc1`, the “hERG current change (%, negative = inhibition) at 1uM” value was -13.8%. Turning to `CC1(C)CC(=O)C=C(Nc2cccc(F)c2)C1`, the “hERG current change (%, negative = inhibition) at 1uM” value came to 11.2%. Turning to `Cc1c(C(=O)Nc2ccc(S(=O)(=O)N3CCOCC3)cc2)cccc1[N+](=O)[O-]`, the “hERG current change (%, negative = inhibition) at 1uM” value was found to be 12.4%. For the compound `CCc1ccc(CN(C)Cc2nc(Cc3ccccc3)no2)nc1`, the “hERG current change (%, negative = inhibition) at 1uM” value is on record as 0.564%. The value for `CC(=O)/C=C\c1ccc(OC(=O)c2cccnc2)cc1` was 19.8%; that for `CCOC(=O)C1CCN(C(=O)c2ccc(OCC(=O)Nc3cccc(C(F)(F)F)c3)c(OC)c2)CC1` was -15.2%; that for `O=C(CCN1C(=O)c2ccccc2C1=O)NCc1ccco1` was 10.3%.

In the case of `CCN(CC)S(=O)(=O)c1ccc(NC(=O)Cn2c(=O)sc3ccccc32)cc1`, the “hERG current change (%, negative = inhibition) at 1uM” value is listed as 7.41%. In the case of `CCCCC[C@H]1CN(Cc2ccccc2)C(=O)[C@@H]1CC(=O)NCc1ccccc1`, the “hERG current change (%, negative = inhibition) at 1uM” value is -25.1%. Regarding `Cc1cc(C)cc(OCC(=O)NN2C(=O)c3ccccc3C2=O)c1`, the “hERG current change (%, negative = inhibition) at 1uM” value is 15.6%.

As to `N/C(=N\OC(=O)c1cccc(Cl)c1)c1cccnc1`, the “hERG current change (%, negative = inhibition) at 1uM” value came to 0.676%.

`CC(=O)c1ccc(N2CCC(C(=O)O)CC2)cc1`: the “hERG current change (%, negative = inhibition) at 1uM” value is listed as -2.38%. On to `C/C(=N\OCC(=O)Nc1ccccc1C(C)(C)C)c1ccc2c(c1)OCCO2`, for which the “hERG current change (%, negative = inhibition) at 1uM” value was 13.9%. Regarding `CCOC(=O)C1=C(c2ccccc2)N=C2SCC(=O)N2C1c1ccc2c(c1)OCO2` (centres unmarked), the “hERG current change (%, negative = inhibition) at 1uM” value is recorded as -1.68%.

Turning to `C#CCNC(=O)C1=C[C@H](c2coc3ccccc3c2=O)[C@@H](CCCO)[C@H](OCC)O1`, the “hERG current change (%, negative = inhibition) at 1uM” value is given as -3.42%. The value for `COc1ccc(NC(=O)CN(c2ccc(F)cc2)S(=O)(=O)c2ccccc2)c(OC)c1` was 4.11%; that for `Cc1nnc(SCC(=O)N(CC(C)C)c2c(N)n(CC(C)C)c(=O)[nH]c2=O)n1-c1ccccc1` was 12.3%. Turning to `Cc1cccc(OCC(=O)N(C)CC(=O)Nc2cccc(F)c2)c1C`, the “hERG current change (%, negative = inhibition) at 1uM” value was determined as 10.4%. The value for `COc1ccc(S(=O)(=O)N2CCCC(C(=O)N3CCN(C)CC3)C2)cc1Cl` (centres unmarked) was 18.8%; that for `O=C(Nc1ccncc1)C1(c2ccccc2)CCCC1` was 8.12%; that for `CCOc1ccc(N2C(=O)Nc3ccc(Br)cc3C2(O)C(=O)NCCN(C)C)cc1` (centres unmarked) was 7.02%. `COc1ccc(C(=O)/C=C/C(=O)N(Cc2ccccc2OC)C(C(=O)NC2CCCCC2)c2ccncc2)c(O)c1` (centres unmarked): the “hERG current change (%, negative = inhibition) at 1uM” value is on record as 10%. The value for `CC(=O)OCC1OC(c2ccccc2)C(OC(C)=O)C(OC(C)=O)C1OC(C)=O` (centres unmarked) was 0.299%; that for `COc1ccc(-c2cc3nc[nH]c(=O)c3s2)cc1` was 14.8%; that for `CCOC(=O)N1CC[NH+](CCC(=O)Nc2cccc(Br)c2)CC1.[Cl-]` was 0.599%. As for `Cc1ccc(NS(=O)(=O)c2ccc(N/N=C/c3ccncc3)c([N+](=O)[O-])c2)c(C)c1`, the “hERG current change (%, negative = inhibition) at 1uM” value turned out to be 18.2%. On to `COc1ccc(C(=O)NC2CCN(C(=S)Nc3cccc(C)c3C)CC2)cc1`, for which the “hERG current change (%, negative = inhibition) at 1uM” value came to 3.36%.

As to `Cc1ccc(Cl)cc1NC(=O)CSc1sc2c(O)cc(=O)[nH]c2c1C#N`, the “hERG current change (%, negative = inhibition) at 1uM” value was found to be 12.3%. Turning to `Cc1ccc(SCCC(=O)Nc2nccs2)cc1`, the “hERG current change (%, negative = inhibition) at 1uM” value worked out at 5.96%. For `CCCc1cc(=O)n2[nH]c(NCc3ccc(OC)c(OC)c3)nc2n1`, the “hERG current change (%, negative = inhibition) at 1uM” value worked out at 7.97%.
